Experimental data reported in PubChem BioAssay AID1346428 (National Center for Advancing Translational Sciences (NCATS), 2018).
Several values for one entry are separate records, joined by “and”; a condition that tells them apart may be missing. Equal entries are not always repeated. Hit rate of the full screen: of about 48,000 compounds, about 1,200 (2.5%) were called active. Inconclusive results (about 2%) are left out.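 Rule for the calls: active = activation of at least 60% and not above a set upper limit (about 1 call in 100 departs from these limits); inconclusive = activation of 40% to 60%, or above that upper limit; inactive = activation under 40%.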 The list shows a part of the results.

These compounds were tested against Probable G-protein coupled receptor 32 (Homo sapiens) (UniProt O75388) (assay: qHTS for Agonists of Human Resolvin D1 Receptor DRV1). Settings: CHO-K1 GPR32 beta-arrestin PathHunter luminescence, 90 min; at 76.9 µM; stronger effect = higher value; zero percent set by DMSO-only wells.
In short: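 Luminescent readout of beta-Gal complementation quantifies ligand-induced beta-arrestin association with GPR32 in CHO-K1 cells; 90 min compound incubation at 37 °C, detection 1 h at room temperature.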
Note: 0% is about no effect.

UniProt O75388, sequence (O75388 whole entry, looked up): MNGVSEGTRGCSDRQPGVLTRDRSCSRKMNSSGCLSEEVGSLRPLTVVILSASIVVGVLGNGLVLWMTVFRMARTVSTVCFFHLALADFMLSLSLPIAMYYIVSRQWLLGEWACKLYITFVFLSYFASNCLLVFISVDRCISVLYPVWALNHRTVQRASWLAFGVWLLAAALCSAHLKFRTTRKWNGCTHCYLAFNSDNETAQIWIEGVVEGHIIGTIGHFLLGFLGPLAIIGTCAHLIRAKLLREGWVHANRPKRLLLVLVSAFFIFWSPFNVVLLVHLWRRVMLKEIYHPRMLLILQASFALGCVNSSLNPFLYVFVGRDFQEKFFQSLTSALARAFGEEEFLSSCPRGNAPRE

SMILES | activation
CC(NC(=O)Nc1ccccc1C(F)(F)F)c1c(-n2cccc2)sc2c1CCCC2 (configuration not stated) | inactive: -6.71%
COc1ccc(-c2nc(SCC(=O)Nc3ccc4c(c3)OCO4)c(-c3ccc(OC)cc3)[nH]2)cc1 | inactive: 3.06%
CCOc1ccc(S(=O)(=O)N2CCN(c3c(C)cccc3C)CC2)c2ccccc12 | inactive: 5.77%
CCOc1ccccc1NC(=O)C1CCN(S(=O)(=O)c2ccccc2)CC1 | inactive: -8.27%
CN(C(=O)CSc1nc2c(c(=O)[nH]1)CCCC2)c1ccccc1 | inactive: 12.4%
Cc1cc(C)cc(OC(=O)c2snnc2C)c1 | inactive: -2.08%
Cc1cc(C)c(NC(=O)c2cc3c(=O)n4ccccc4nc3n2C)c(C)c1 | inactive: 3.99%
Cc1cc(-c2nc3ncccc3o2)ccc1NC(=O)c1ccc(Br)cc1 | inactive: -0.891%
CC(C)c1ccc(S(=O)(=O)Nc2ccc3oc4c(c3c2)C(=O)CC(C)(C)C4)cc1 | inactive: 20.9%
Cc1ccc2c(=O)cc(CSc3nnc(-c4ccccc4)n3C)[nH]c2c1C | inactive: 5.39%
CCOC(=O)Cn1c(=O)n(C2CCCCC2)c2nc(-c3ccc(Cl)cc3)nc(C(N)=O)c21 | inactive: 13.4%
CC1CCN(C(=O)c2cnn(-c3cccc(Cl)c3)c2C2CCN(C(=O)OC(C)(C)C)CC2)CC1 | inactive: -8.11%
COc1cc(OC)cc(-n2nnc(-c3nc(-c4ccccc4Cl)no3)c2N)c1 | inactive: -26.5%
CC(=O)N1CCc2c(sc3c2c(=O)n(-c2ccccc2C)c(=O)n3Cc2cccc(F)c2)C1 | inactive: -7.66%
CC(=O)Nc1ccc(S(=O)(=O)N2CCC(Oc3ccc(-n4cnnn4)cc3)CC2)cc1 | inactive: 10.4%
Cc1c(Cl)cccc1NC(=O)c1ccc(C(=O)Nc2cccc(Cl)c2C)cc1 | inactive: 4.42%
COCCCNC(=O)c1sc2nc(C)c(C(=O)Nc3ccc(C)cc3C)c(-c3ccc(Cl)cc3)c2c1N | inactive: 24%
CC(=O)N1c2ccccc2C(=O)C1N1CCN(c2ccccc2)CC1 (configuration not stated) | inactive: -31.6%
CSc1ccc(CNC(=O)c2ccccc2NC(=O)c2nsc3ccccc23)cc1 | inactive: -6.95%
COc1ccc(NC(=O)c2c(-c3ccccc3)c(-c3ccccc3)nn(C)c2=O)c(OC)c1 | inactive: -27.8%
CN(CC1(C)CCCO1)S(=O)(=O)c1ccc(Cl)c(S(N)(=O)=O)c1 (configuration not stated) | inactive: -19.9%

SMILES | activation
COc1ccc(OCC(=O)NCC(c2ccc(Cl)cc2)N2CCCCC2)cc1 (configuration not stated) | inactive: -14.8%
C[C@@H](O)[C@H]1C(=O)N2C(C(=O)O)=C(SCCN=CN)C[C@H]12 | inactive: -12.7% and inactive: -1.78%
O=C(Nc1ccccc1-c1nc2ccccc2s1)c1cc(Cl)cc(Cl)c1 | inactive: 7.8%
Cc1c(CNC(C)CCc2ccccc2)c(C(=O)O)c(C)n1Cc1ccc(F)cc1Cl (configuration not stated) | inactive: -15.4%
CC1=C(C(=O)O)N2C(=O)[C@@H](NC(=O)[C@H](N)c3ccc(O)cc3)[C@H]2SC1 | inactive: 5.39%
COc1ccc(CN2COc3ccc4c(oc(=O)c5ccccc54)c3C2)cc1OC | inactive: -23.5%
Cc1ccccc1Nc1c(-c2ccc(N3CCOCC3)cc2)nc2ncccn12 | inactive: -26.5%
CCCCOc1ccc(C(=O)N(Cc2ccc(C(C)C)cc2)C2CCS(=O)(=O)C2)cc1 (configuration not stated) | inactive: -40.6%
COC(=O)c1scc(-c2ccccc2)c1S(=O)(=O)Nc1cccc(C)c1C | inactive: -23.6%
O=C(c1ccccc1Cl)n1nc(-c2cccnc2)nc1NCc1ccc(F)cc1 | inactive: -36.2%
Cc1cc(C)c(NC(=O)CCc2c(C)nc3c(c(C)nn3C(C)(C)C)c2C)c(C)c1 | inactive: 6.97%
CCOC(=O)c1ccc(NC(=O)CCc2c(C)nc3nc[nH]n3c2=O)cc1 | inactive: 23.3%
COc1ccc(N2CCN(C3=NS(=O)(=O)C(c4cccc(Br)c4)=C3C)CC2)cc1 | inactive: -24%
COC(=O)c1cc2sc(C)cc2n1Cc1ccc(Br)cc1F | inactive: -32.6%
COc1ccc(C2=NN(CC(=O)NCCCN(C)c3ccccc3)C(=O)CC2)cc1 | inactive: -31%
COc1ccccc1N1CCN(CC(O)COc2cc(C)cc(C)c2)CC1 (configuration not stated) | inactive: 34%
CCOc1ccc(N2C(=O)N(Cc3ccc(C)cc3C)c3ccccc3S2(=O)=O)cc1 | inactive: -7.84%
O=C(O)CCC/C=C\C[C@@H]1[C@@H](/C=C/[C@H](O)C2Cc3ccccc3C2)[C@@H](F)C[C@@H]1O | inactive: -2.3%
O=c1c2ccccc2n(Cc2cccc(F)c2)c(=O)n1Cc1ccccc1Cl | inactive: 7.25%
COc1cccc(CNC(=O)CCCN2C(=O)CSc3c2c(C)nn3-c2ccccc2)c1 | inactive: 2.74%
Cc1ccc(-c2cc(C(=O)NCCc3ccccc3)c3c(-c4ccc(C)cc4)[nH]nc3n2)cc1 | inactive: -24.6%

SMILES | activation
CCn1cc(C(=O)N2CCN(c3cc(C)ccc3C)CC2)c(=O)c2cc(S(=O)(=O)N(C)C3CCCCC3)ccc21 | inactive: 6.54%
Cc1cccc(Nc2c3c(nc4nncn24)CCC3)c1 | inactive: -14%
CCCCN1CCc2nc(N3CCN(c4ncccn4)CC3)ncc2C1 | inactive: -10.9%
Cc1ccc(NC(=O)CSc2nc3c([nH]c4ccccc43)c(=O)n2-c2ccccc2)c(C)c1 | inactive: -43%
CCN(c1ccccc1)S(=O)(=O)c1ccc(NC(=O)c2cc(=O)c3cc(C)c(C)cc3o2)cc1 | inactive: -3.46%
Cc1cccc(NS(=O)(=O)c2ccc3c(c2)CCN3C(=O)CCC(=O)O)c1C | inactive: 21.6%
COc1ccc(S(=O)(=O)Nc2cc3c(cc2NCc2ccccc2)n(C)c(=O)n3C)cc1OC | inactive: -18.8%
COc1cccc(-n2cc(C(=O)NCc3cccc(Cl)c3)c3ccccc3c2=O)c1 | inactive: -24.8%
CCOc1ccc(NC(=O)c2ccc(-c3ccccc3)s2)cc1 | inactive: -4.76%
Cc1nc2c(-c3ccc(F)cc3)c(C)nn2c(C)c1CCC(=O)NCc1ccc(Cl)cc1 | inactive: 18%
COc1ccccc1N1CCN(C(=O)Cn2c(=O)nc(-c3ccccc3)c3cc(Cl)ccc32)CC1 | inactive: -6.85%
CCOc1ccc(C(=O)Nc2ccc3nc(SCc4ccccc4)sc3c2)cc1 | active: 62.8%
CCSc1ncc(Cl)c(C(=O)Nc2c(C(=O)Nc3ccc(Cl)cc3)oc3ccccc23)n1 | inactive: -12.2%
O=C(c1ccc2c(c1)N(Cc1ccccc1)C(=O)c1ccccc1S2(=O)=O)N1CCN(c2ccccn2)CC1 | inactive: -18.2%
CCOc1ccc(OCC)c(NC(=O)CCc2c(C)nc3c(c2C)c(=O)n(C)c(=O)n3C)c1 | inactive: -1.15%
CCOc1ccccc1CNC(=O)c1cc(-c2ccc(OC)cc2)nc2ccc(C(C)C)cc12 | inactive: -13%
COc1cc(C2c3c(oc4ccccc4c3=O)C(=O)N2c2nnc(C(C)C)s2)cc(OC)c1OC (configuration not stated) | inactive: -6.39%
CCOC(=O)c1cccc(NS(=O)(=O)c2cn(C)c(C)n2)c1 | inactive: 9.14%
COc1ccc(CNC(=O)c2ccc3c(c2)nc2n3CCCCC2)c(OC)c1 | inactive: -15.3%
COC(=O)c1ccccc1NC(=O)Cn1c(=O)n(-c2ccc(Cl)cc2)c(=O)c2c(C)c(C)sc21 | inactive: -2.47%
COc1ccc(/C=C/c2noc(-c3ccccc3O)n2)cc1OC | inactive: -5.54%

SMILES | activation
Cc1ccc(Cn2ccn(Cc3ccccc3C)c(=O)c2=O)cc1 | inactive: -2.44%
COc1ccc(C(=O)N2CCc3cc(OC)c(OC)cc3C2COc2ccc3c(C)cc(=O)oc3c2)c(OC)c1 (configuration not stated) | inactive: 4.01%
COc1cc(NS(=O)(=O)c2ccc3c(c2)CCCN3C(C)=O)cc(OC)c1OC | inactive: 1.6%
Cc1cc(C)cc(-n2nnc(-c3nc(-c4ccccc4F)no3)c2C)c1 | inactive: -4.53%
Cc1ccc(CN2CCN(CC(=O)NCc3ccccc3Cl)C2=O)cc1 | inactive: 9.7%
Cc1cc(C)n(-c2nc3ccccc3nc2Nc2cc(C(=O)O)ccc2C)n1 | inactive: 5.39%
COc1ccc(S(=O)(=O)N(CC(=O)NCc2ccc(C)cc2)c2ccc(Cl)cc2)cc1 | inactive: -5.51%
CCOc1ccccc1NC(=O)CN1C(=O)C2(SCC(=O)N2c2cccc(F)c2)c2ccccc21 (configuration not stated) | inactive: -18%
O=C(Nc1ccc(F)c(Cl)c1)c1cc(S(=O)(=O)N2CCCc3ccccc32)ccc1F | inactive: -23.8%
Cc1c(Cl)cccc1NC(=O)CCn1nc(C)c2c(C)n(-c3ccccc3)nc2c1=O | inactive: -4.59%
Cc1ccc(NC(=O)C(=O)NCC(c2cccnc2)N2CCc3ccccc32)cc1Cl (configuration not stated) | inactive: -12.7%
COc1ccc(NC(=O)c2sc3nc(C)c(C(=O)Nc4ccc(Cl)cc4)c(-c4ccc(Br)cc4)c3c2N)cc1 | inactive: 21%
CCOc1ccc(C(=O)N2CCCCC2CCN2CCOCC2)cc1 (configuration not stated) | inactive: -11.9%
COc1ccc(NC(=O)c2nc3nc(C)cc(C(F)F)n3n2)c(C)c1 | inactive: 24.1%
COc1ccccc1Nc1nc2ccc(Cl)cc2nc1-n1nc(C)cc1C | inactive: -19.9%
COCCNC(=O)C(=O)NCC(c1cccnc1)N1CCN(c2ccccc2F)CC1 (configuration not stated) | inactive: 0.535%
Cc1ccc2oc3c(c(=O)c2c1)C(c1ccc(F)cc1)N(c1nc(C)c(C)s1)C3=O (configuration not stated) | inactive: -9.29%
COc1ccc(C2CC(=O)Nc3c2c(=O)[nH]c2nc4ccccc4n32)cc1OC (configuration not stated) | inactive: -7.18%
Cc1ccc(C)c(NS(=O)(=O)c2cc3c(cc2Cl)NC(=O)CO3)c1 | inactive: -2.84%
